Laboratory results reported in the supplement of paper PMC3334620.
Whole data set: some 33,000 sequences, median “E-score (-0.5 to 0.5)” near -0.041, cut for the highest 2% near 0.37. This is one part of the list.

Each sequence was assayed against T1, Ecm22 (UniProt Q05958) (assay: PBM E-score (8-mer binding enrichment) (E-score (-0.5 to 0.5)); higher = stronger / more preferred TF binding; most listed sequences are background and not binding sites). Conditions: protein concentration: 200 nM; construct: GST-full length.
T1 sequence: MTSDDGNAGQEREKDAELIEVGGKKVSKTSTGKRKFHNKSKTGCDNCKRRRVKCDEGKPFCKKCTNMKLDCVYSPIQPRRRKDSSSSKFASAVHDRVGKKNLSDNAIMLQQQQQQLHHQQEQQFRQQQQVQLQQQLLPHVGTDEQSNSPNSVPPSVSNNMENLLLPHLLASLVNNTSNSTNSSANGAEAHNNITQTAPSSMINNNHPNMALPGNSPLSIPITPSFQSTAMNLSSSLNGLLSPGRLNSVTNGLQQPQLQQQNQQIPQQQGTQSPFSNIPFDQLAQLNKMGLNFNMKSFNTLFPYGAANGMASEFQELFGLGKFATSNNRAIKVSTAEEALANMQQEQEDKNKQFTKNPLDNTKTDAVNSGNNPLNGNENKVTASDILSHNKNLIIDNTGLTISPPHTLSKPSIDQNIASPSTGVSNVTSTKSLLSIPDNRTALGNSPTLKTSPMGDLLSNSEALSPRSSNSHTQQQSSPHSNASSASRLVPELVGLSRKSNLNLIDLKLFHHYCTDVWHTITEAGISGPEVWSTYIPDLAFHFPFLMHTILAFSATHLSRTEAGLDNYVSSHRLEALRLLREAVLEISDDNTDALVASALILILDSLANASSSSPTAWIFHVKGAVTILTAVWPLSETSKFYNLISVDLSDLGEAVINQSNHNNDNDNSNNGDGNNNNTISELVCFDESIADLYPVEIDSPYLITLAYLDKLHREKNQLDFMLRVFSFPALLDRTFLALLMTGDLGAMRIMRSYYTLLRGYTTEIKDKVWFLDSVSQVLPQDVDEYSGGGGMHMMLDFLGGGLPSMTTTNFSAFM
Outline: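 E-scores (a modified Wilcoxon-Mann-Whitney statistic) were assigned by the Universal PBM Analysis Suite to every ungapped eight-base word pooled with its reverse complement. The input came from universal all-10-mer Agilent arrays made double-stranded by primer extension and probed with GST-tagged yeast transcription factors at about 100-200 nM. Fluorescent anti-GST detected bound protein, and masliner normalised the scans.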

| Sequence | PBM E-score |
| --- | --- |
| GGAGTCAC | -0.214 |
| GCCTTTCA | -0.108 |
| AGACAAGG | -0.178 |
| ATGGGCGA | -0.0942 |
| ACTATGAA | -0.0422 |
| CGCAGCTC | 0.0643 |
| AAATACTC | -0.0418 |
| GCGTCTAA | -0.204 |
| AGGTCGCG | 0.05 |
| ACCTACCA | -0.21 |
| CGAGAGGC | 0.0476 |
| CGCTAGAA | -0.129 |
| ATGGCGGG | -0.122 |
| CGGCAGCA | -0.14 |
| TCGTGGCA | -0.0281 |
| CGACTTCC | -0.0118 |
| GCGCTTAA | 0.0179 |
| ACCTGCTA | 0.0415 |
| ACTTATCC | 0.0349 |
| AGTTGAGG | -0.245 |
| GCCTGGAC | -0.216 |
| AAGGTTTC | -0.159 |
| AGAGAAGG | -0.261 |
| ATTGAATC | -0.113 |
| AGACTAAG | -0.00025 |

| Sequence | PBM E-score |
| --- | --- |
| ATTTCACG | 0.206 |
| GAGCTTGA | -0.159 |
| CGGAACCC | -0.0002 |
| GATCCTGC | 0.0357 |
| AGAGTCCT | -0.264 |
| TACTGCCA | -0.0409 |
| CCCGAAGC | -0.0995 |
| GACCCAGA | 0.0321 |
| CACTTATG | 0.071 |
| GCGCCAAC | -0.0839 |
| ATTAAAAC | 0.086 |
| TCTTCTCA | -0.153 |
| CGCGGGAG | -0.0511 |
| ACCAGAGT | -0.0989 |
| ACTACGAT | 0.182 |
| AGTGCGCA | -0.0824 |
| CAGGAGCC | -0.208 |
| ATGCGCCG | -0.0823 |
| GTGGCACA | -0.195 |
| AGGTTGGC | -0.186 |
| AGTGTACC | -0.059 |
| TAGCCCGA | -0.0144 |
| CCGATGAA | 0.0749 |
| CTTTTTTC | -0.0133 |
| GCCGGCGC | -0.064 |

| Sequence | PBM E-score |
| --- | --- |
| CTGGTTCC | -0.207 |
| AACAATAG | -0.0614 |
| CTGATCAG | -0.132 |
| CGTATCAA | 0.386 |
| GCACTTGA | -0.184 |
| ATCACGAC | 0.0295 |
| AGATTCTC | -0.0302 |
| ACACCTTA | -0.139 |
| ATGCGCTC | -0.0605 |
| TGATTCCA | -0.191 |
| AATGCAGG | -0.0879 |
| ATTGTCGA | -0.0961 |
| ACATAAGA | 0.0804 |
| CACATGTC | -0.199 |
| AACAGCAG | -0.0465 |
| AGATGCAA | -0.206 |
| AACAGACA | -0.04 |
| CAATTCCG | -0.215 |
| GACAGACC | 0.00609 |
| CAGGAGCA | -0.164 |
| GCGGCCGA | -0.0115 |
| CATCGTCC | 0.0413 |
| AAGACTGC | -0.243 |
| ACACAGCA | -0.0144 |
| TAAATAGA | 0.0319 |

| Sequence | PBM E-score |
| --- | --- |
| AGCGACTG | 0.177 |
| AGGGTTTG | -0.117 |
| CACCGCGC | 0.0943 |
| AAGTTTAG | -0.138 |
| ATCACACG | 0.0831 |
| ATTCTGAA | -0.00244 |
| CGGTTTGA | -0.0256 |
| CGGTTTGC | 0.214 |
| AAAGATTG | -0.286 |
| ACTTAGGG | -0.0832 |
| CTGAATCC | -0.173 |
| GGGCGGCA | -0.0594 |
| CCGAGCGG | 0.202 |
| AGGAATCG | 0.15 |
| AGCCTCAG | -0.0416 |
| GTCATTTA | -0.185 |
| CATGGTGC | -0.152 |
| AAGATCCC | -0.0661 |
| AGGCGATC | 0.0299 |
| ACCGCGAT | 0.0844 |
| ATTGGTGA | -0.215 |
| CGTGGTGC | -0.171 |
| GGATGAGA | -0.121 |
| CCACATGC | -0.105 |
| GAGTTCAA | -0.0165 |

| Sequence | PBM E-score |
| --- | --- |
| ATTACACA | -0.022 |
| AAATACGT | 0.0932 |
| CTCTGCGA | 0.15 |
| TATGTCGA | 0.174 |
| CTCGTTAC | 0.371 |
| CCGACCCC | -0.16 |
| AAGGCTCC | -0.296 |
| AACGAACG | 0.437 |
| CTTGTCTA | 0.0126 |
| CTATCACC | -0.124 |
| AGACGCTC | -0.179 |
| AGATCCCA | -0.166 |
| CTTTACAA | -0.207 |
| CTTCTTGA | -0.131 |
| ACCAGAGA | -0.075 |
| GGCGAATA | 0.0385 |
| GCACTAAA | 0.152 |
| ACTGGACG | -0.0864 |
| CAGCTGGA | -0.0905 |
| GTTAACGA | 0.408 |
| AGATTGTC | 0.0657 |
| GGAGTCAA | -0.195 |
| CTATTTGA | -0.176 |
| CCCACCCA | -0.242 |
| GAAGATAC | 0.0301 |

| Sequence | PBM E-score |
| --- | --- |
| TAATGTCA | -0.252 |
| AACTAGGA | -0.18 |
| GCTAGGCC | -0.231 |
| AACTATGG | -0.118 |
| AGTATTAT | -0.0872 |
| AGAACTTC | -0.143 |
| CAAAAATG | -0.145 |
| AAAGGTTG | -0.251 |
| CCTGACGC | -0.409 |
| AGGACAGG | -0.138 |
| ACTAAGTA | -0.165 |
| CCGGCCAC | -0.25 |
| AAGGGCGC | -0.14 |
| AGGTATGC | 0.0443 |
| CATCTACC | -0.0782 |
| AACACGGA | -0.135 |
| ATAGTGCG | 0.165 |
| CGGACTTA | -0.2 |
| GACAGGTC | -0.165 |
| GCAGGCGA | -0.147 |
| TAAATAAA | 0.133 |
| CAGCGTTA | -0.0109 |
| ATAGGCGA | 0.0706 |
| GGCTGACC | -0.114 |
| AACAATCG | 0.0979 |

| Sequence | PBM E-score |
| --- | --- |
| CGGTCTAC | 0.134 |
| GATAACCA | 0.0159 |
| CGTTAGTA | 0.141 |
| CCTTAAGC | -0.144 |
| ACTGGGGC | -0.276 |
| CGACGAGC | 0.162 |
| TCGGAGAA | -0.0245 |
| TCGAGCAA | 0.01 |
| AGGACATG | -0.0145 |
| CCCCTAGC | -0.254 |
| GGCACGCA | 0.115 |
| ACAGTAAC | 0.00997 |
| ACGCGGGG | 0.0811 |
| CACTGCTA | -0.0445 |
| CGTCCGAG | 0.148 |
| AACTAGTG | -0.155 |
| AGTCGGGG | -0.198 |
| CAATCCTA | -0.134 |
| AGACCTAG | -0.102 |
| CGCCACAC | 0.0866 |
| ACCTCGTA | 0.463 |
| ATAAAACA | 0.0904 |
| CCATAGCA | -0.316 |
| AACCCGGC | 0.11 |
| AGTCGGGA | 0.141 |

| Sequence | PBM E-score |
| --- | --- |
| GACTGCGC | -0.0149 |
| TAGGGGCA | -0.203 |
| CATACTCA | 0.0364 |
| GCTCTTCA | -0.119 |
| CTTTAAAC | -0.0203 |
| CGGATGAA | 0.16 |
| CAGCAGCA | -0.111 |
| ATCATATG | -0.00924 |
| AAGTCTGG | -0.159 |
| AGTCTGCA | -0.179 |
| GACTCGCA | 0.151 |
| GATAACGA | 0.194 |
| ATCCATCG | 0.209 |
| ATGTAGAG | -0.101 |
| CCCTCTAG | -0.322 |
| CAAAATTG | -0.094 |
| CACAATGA | -0.0919 |
| CCCTCTGC | -0.195 |
| CCGATACA | 0.164 |
| AATGGCGG | -0.175 |
| CTCAAACC | -0.188 |
| ATGCTGCG | -0.145 |
| GTACAGAC | 0.207 |
| ACTAGTTG | -0.265 |
| CGAGGGAG | 0.118 |

| Sequence | PBM E-score |
| --- | --- |
| CCATCTTA | -0.00038 |
| CACAGTAG | 0.0919 |
| AATCGGTC | 0.144 |
| ATCGTAAG | 0.308 |
| CCCGCGAA | 0.0102 |
| CGTGCATC | -0.0497 |
| AGTAAAAC | 0.117 |
| ACTGCCGC | -0.118 |
| GAAGATCC | -0.189 |
| CAGCTAGA | -0.0476 |
| AACGTTTG | 0.137 |
| CATAGAAC | -0.0306 |
| GTGCTCTA | -0.142 |
| AGATAACA | -0.128 |
| ATGCAGAC | -0.0112 |
| TCAGGCAA | -0.109 |
| CCCATGAA | -0.177 |
| CTTCCAAA | -0.164 |
| CGGAGCTC | -0.157 |
